SMILES strings stand for the structures. The campaign covered roughly 310,000 compounds. About 14,000 (4.5%) showed an effect of 50% or more. Effects have a minus sign here. The list shows a part of the results.
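Also: peak tail current of the secondary pulse compared with the same well before compound.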

The target in this assay is human ether-à-go-go-related gene (hERG) potassium channel (human, UniProt Q12809). Kind of assay: primary screen, population patch clamp on CHO cells stably expressing hERG.
Chain of human ether-à-go-go-related gene (hERG) potassium channel (Q12809 whole entry, looked up): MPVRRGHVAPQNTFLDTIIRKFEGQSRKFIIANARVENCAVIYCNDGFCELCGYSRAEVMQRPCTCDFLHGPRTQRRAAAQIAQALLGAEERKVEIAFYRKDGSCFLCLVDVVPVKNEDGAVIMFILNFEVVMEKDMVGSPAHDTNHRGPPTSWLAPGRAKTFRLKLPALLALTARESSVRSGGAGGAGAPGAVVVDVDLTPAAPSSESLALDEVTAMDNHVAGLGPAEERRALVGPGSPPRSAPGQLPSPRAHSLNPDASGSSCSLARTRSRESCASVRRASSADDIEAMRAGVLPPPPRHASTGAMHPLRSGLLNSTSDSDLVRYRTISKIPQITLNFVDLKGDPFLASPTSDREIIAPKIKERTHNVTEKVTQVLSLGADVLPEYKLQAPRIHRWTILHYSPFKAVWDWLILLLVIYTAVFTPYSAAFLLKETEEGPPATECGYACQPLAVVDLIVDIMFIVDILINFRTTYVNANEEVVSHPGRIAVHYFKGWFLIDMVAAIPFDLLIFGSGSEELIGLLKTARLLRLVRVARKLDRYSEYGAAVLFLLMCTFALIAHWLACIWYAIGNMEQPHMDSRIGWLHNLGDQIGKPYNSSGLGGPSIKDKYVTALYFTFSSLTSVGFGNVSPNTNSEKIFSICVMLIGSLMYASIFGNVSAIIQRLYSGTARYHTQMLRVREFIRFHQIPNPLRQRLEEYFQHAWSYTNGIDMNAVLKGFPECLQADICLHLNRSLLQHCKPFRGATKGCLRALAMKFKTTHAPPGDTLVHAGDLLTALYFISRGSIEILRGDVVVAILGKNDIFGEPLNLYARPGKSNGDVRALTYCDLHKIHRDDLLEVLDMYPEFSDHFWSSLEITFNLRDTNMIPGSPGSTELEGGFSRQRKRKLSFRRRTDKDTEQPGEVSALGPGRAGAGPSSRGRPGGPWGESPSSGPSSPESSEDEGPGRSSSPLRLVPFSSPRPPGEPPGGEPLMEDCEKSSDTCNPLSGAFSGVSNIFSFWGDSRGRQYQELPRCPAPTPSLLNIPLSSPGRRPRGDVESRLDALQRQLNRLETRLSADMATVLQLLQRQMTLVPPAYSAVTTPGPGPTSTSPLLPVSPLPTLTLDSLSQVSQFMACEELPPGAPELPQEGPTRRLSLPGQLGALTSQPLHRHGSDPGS
For `Cc1cc(C)nc(NCCO)n1.Cl`, the “hERG current change (%, negative = inhibition) at 10uM” value is 13%. The value for `CCNc1nc(NCC)nc(OCCNS(=O)(=O)c2cc(C)ccc2C)n1` was -16.2%; that for `COc1ccc(-c2cc(C(F)F)n3ncc(C(=O)N4CCN(C(=O)c5ccco5)CC4)c3n2)cc1` was -34.8%.

With `COc1cccc(/C=C2\SC(=S)N(CCC(=O)Nc3ccc(O)cc3)C2=O)c1`, the “hERG current change (%, negative = inhibition) at 10uM” value is given as -0.539%. To `CN(CC1CCCO1)S(=O)(=O)c1ccc(C(=O)Nc2nc(-c3ccccn3)cs2)cc1` (stereo not shown) belongs -23.3%; to `CCc1ccc(NC(=O)C2=CC(c3ccc(OC)c(OC)c3)=NS(=O)(=O)N2C)cc1`, -8.98%.

Regarding `CCCOc1ccc(C2NC(=O)NC2=O)cc1` (stereo not shown), the “hERG current change (%, negative = inhibition) at 10uM” value is 11.8%. To `CSCCC(=O)N1CCCC(N2CCN(c3cccc(C(F)(F)F)c3)CC2)C1` (stereo not shown) belongs -40.4%; to `CCCCCCCCCCOC(=O)Cn1c(COc2cccc(C)c2)[n+](C)c2ccccc21.[Cl-]`, -76%. The value for `O=C(c1ccc(Cl)cc1)N1CCC(O)(CSc2ccc(Cl)cc2)CC1` was -44.4%. With `COc1c(S(=O)(=O)N2CCN(C(=O)c3ccco3)CC2)ccc(Cl)c1Cl`, the “hERG current change (%, negative = inhibition) at 10uM” value is on record as -23.1%. As to `Nc1ncncc1-c1ccc([N+](=O)[O-])cc1`, the “hERG current change (%, negative = inhibition) at 10uM” value is given as -9.28%. To `Cc1ccc2[nH]c(=O)c(CN(C(=O)c3cccs3)c3ccccc3)cc2c1` belongs 13.8%.

For `CCOc1ccc(NC(=O)CCc2nnc3ccc(N4CCC(C)CC4)nn23)cc1`, the “hERG current change (%, negative = inhibition) at 10uM” value is -27%. To `O=S(=O)(c1ccc(Cl)cc1)N1CCN=C1SCc1ccc(Cl)c(Cl)c1` belongs 8.78%; to `Cc1ccc(CC(=O)Nc2nc3ccccc3[nH]2)cc1C`, -9.9%. The value for `CCC1CCCCN1CCCNC(=O)c1ccc2c(c1)NC(=O)CN2C` (stereo not shown) was 19.4%; that for `O=C(CSc1nccc(=O)[nH]1)c1ccco1` was -1.66%; that for `COc1ccc(Cl)cc1C(=O)NCCS(=O)(=O)N1CCN(c2ccccc2F)CC1` was -42.7%. The value for `CC(NC(=O)c1ccc(NC(=O)CC2SC(N3CCCC3)=NC2=O)cc1)c1ccc(F)cc1` (stereo not shown) was 13.8%; that for `FC(F)(F)COc1nc(N/N=C/c2cccnc2)nc(N2CCCCC2c2ccccn2)n1` (stereo not shown) was -60.8%.

On to `COc1ccccc1N(C(=O)CCl)c1cn(C(C)=O)c2ccccc12`, for which the “hERG current change (%, negative = inhibition) at 10uM” value is given as -10.6%. The value for `COC(=O)C(O)(NC(=O)c1ccncc1)C(F)(F)F` (stereo not shown) was 22%. To `CCOC(=O)N1CCC(N2Cc3cccc(C(=O)Nc4cc(F)ccc4F)c3C2=O)CC1` belongs -23.1%.

With `O=C(CSc1ccc(Cl)cc1)N/N=C/c1cccnc1`, the “hERG current change (%, negative = inhibition) at 10uM” value is recorded as -40.3%.

In the case of `Cc1ccccc1C(=O)Oc1cc(N)n(S(C)(=O)=O)n1`, the “hERG current change (%, negative = inhibition) at 10uM” value is 11.3%. The value for `COc1ccc(C)cc1NC(=O)c1ccccc1NS(=O)(=O)c1cccc2cccnc12` was 12.6%.

In the case of `Cc1cc(NC(=O)CSc2nnc(C(C)N(C)C)n2-c2ccc(F)cc2)no1` (stereo not shown), the “hERG current change (%, negative = inhibition) at 10uM” value is 31.1%. To `C/C(Cl)=C/CSc1nc2c(c(=O)[nH]c(=O)n2C)n1C(C)C` belongs -12%; to `Cc1nnc(NC(=O)c2c(-c3ccccc3)noc2C)s1`, 19.9%; to `O=c1c2sc3nc(N4CCOCC4)c4c(c3c2ncn1CCc1ccccc1)CCCC4`, -8.42%. To `COc1ccc(CCNC(=O)COc2cc(O)c3c(c2)OC(C)(C)CC3=O)cc1OC` belongs -16.7%; to `COc1ccc(OCC(=O)Nc2ccc(C)c(S(=O)(=O)N(C)C)c2)cc1`, -3.39%; to `COC(=O)c1c(C)[nH]c(C=Nc2ccc(OC)cc2)c1C`, -4.74%. The value for `CCOC(=O)c1cc(-c2ccccc2)sc1NC(=S)Nc1cccc(C)n1` was 10.9%; that for `CCCCn1c(N)c(N(CC)C(=O)c2cc(C)cc(C)c2)c(=O)[nH]c1=O` was 27.9%. As to `CC(=O)Nc1ccc(NC(=O)CSc2nc3[nH]ncc3c(=O)n2-c2ccccc2)cc1`, the “hERG current change (%, negative = inhibition) at 10uM” value is recorded as 32.8%.

As for `CCN(CC)CCCNC(=O)CNC(=S)N(CCCN1CCOCC1)Cc1cccs1`, the “hERG current change (%, negative = inhibition) at 10uM” value stood at 4.78%. The value for `COc1ccc2[nH]c3c(=O)n(CCCCC(=O)N4CCC(C(N)=O)CC4)c(=S)[nH]c3c2c1` was 16.5%; that for `O=C(/C=C/c1ccccc1)Nc1cc(C(=O)O)cc(C(=O)O)c1` was 9.48%. In the case of `CCOc1ccc(OCCSc2ccc(S(=O)(=O)N3CCN(C)CC3)cn2)cc1`, the “hERG current change (%, negative = inhibition) at 10uM” value is -40.1%. To `COc1ccc(S(=O)(=O)N2CCC(C(=O)N[C@@H](C)C(=O)NCc3ccc(F)cc3)CC2)cc1` belongs 1.43%; to `COc1ccccc1-c1cc(C(=O)N2CCN(c3ccccc3OC)CC2)no1`, 12%.

Values taken from paper PMC4336329 (PLoS ONE, 2015).
